From ChEMBL document CHEMBL5606458, “ASAP - ZIKV NS2B-NS3 protease fluorescence single point” (2024) come the findings set out here.

This assay has as its target Nonstructural protein 3 (Zika virus) (UniProt A0A024AXB9).
Setting [1] is: PRVABC59, Concentration 15.0 uM, Number of replicates 1.0.
The mark [2] stands for this setting: PRVABC59, Concentration 10.0 uM, Number of replicates 1.0.
Setting [3] is: PRVABC59, Concentration 50.0 uM, Number of replicates 1.0.

Values joined by “and” are separate entries in the source; they are usually repeats but may differ in a detail not shown here. Identical values can stand only once. In all, about 2,700 compounds went through this assay and about 160 (5.9%) showed an effect of 50% or more. The list shows a part of the results.

UniProt A0A024AXB9, sequence (A0A024AXB9 as listed by the source): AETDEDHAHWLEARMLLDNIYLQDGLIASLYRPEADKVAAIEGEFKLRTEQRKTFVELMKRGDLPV

A word on the inhibition: it is the relative decrease from the control value, in per cent. Turning to `CC(C)n1cnnc1CCNC(=O)c1cc(Cl)ccc1NS(=O)(=O)c1ccc(Oc2ccccc2Cl)cc1`, the inhibition under setting [1] worked out at 2.16%. Same read-out and setting: to `CN1CCN(C(=O)c2cc(Cl)ccc2NS(=O)(=O)c2ccc(Oc3ccccc3Cl)cc2)[C@H](c2ccccc2)C1` belongs 13.2% and 16.2%. For `O=C1Nc2ccccc2C[C@]12CCCN2`, the inhibition (PRVABC59, Concentration 99.5 uM, Number of replicates 2.0, Standard deviation 0.2837885551901611 %) is -8.23%.

Turning to `COc1ccc([C@H](C)NC(=O)C2CCN(c3ccc(C=O)cc3)CC2)cc1`, under setting [2], the inhibition was determined as 23.1%. As to `COc1cc2c(cc1OC)CN(C(=O)C1CCN(c3ccc(C=O)cc3)CC1)CC2`, the inhibition under setting [3] worked out at 22.4%. As for `O=Cc1ccc(N2CCC(C(=O)NCc3cccc(OC(F)F)c3)CC2)cc1`, the inhibition under setting [2] was found to be 23.3%. Consider `COC(=O)[C@@H](C)NC(=O)c1cc(OC)nc(N2CCNCC2)n1`, for which the inhibition runs as follows: (PRVABC59, Concentration 49.5 uM, Number of replicates 2.0, Standard deviation 1.3123589594507579 %) -3.04%; (PRVABC59, Concentration 99.01 uM, Number of replicates 2.0, Standard deviation 1.4734111713301623 %) -3.74%; (PRVABC59, Concentration 198.0 uM, Number of replicates 2.0, Standard deviation 1.229656305960256 %) -2.29%. `CC(C)(CO)NC(=O)c1cc(Cl)cc(NC(=O)c2ccc3c(c2)NC(=O)CS3)c1`: the inhibition runs as follows: (PRVABC59, Concentration 49.5 uM, Number of replicates 2.0, Standard deviation 3.997653532192617 %) 5.15%; (PRVABC59, Concentration 99.01 uM, Number of replicates 2.0, Standard deviation 0.5148338698042132 %) 7.42%; (PRVABC59, Concentration 198.0 uM, Number of replicates 2.0, Standard deviation 0.09640366671072623 %) 15.1%.

In the case of `COc1cc(C(=O)NCC2CC2)nc(N2CCNCC2)n1`, the inhibition is, setting by setting: (PRVABC59, Concentration 49.5 uM, Number of replicates 2.0, Standard deviation 3.6236773803912077 %) -0.874%; (PRVABC59, Concentration 99.01 uM, Number of replicates 2.0, Standard deviation 3.547504116672014 %) -0.429%; (PRVABC59, Concentration 198.0 uM, Number of replicates 2.0, Standard deviation 3.8543740562743776 %) -1.35%. As to `CN(CCCCc1ccccc1)C(=O)c1cc(Cl)ccc1NS(=O)(=O)c1ccc(Oc2ccccc2Cl)cc1`, the inhibition under setting [1] was 28.4%.

On to `c1ccc2c([C@H]3CCN(Cc4ccon4)C3)c[nH]c2c1`, for which the inhibition is, setting by setting: (PRVABC59, Concentration 49.5 uM, Number of replicates 2.0, Standard deviation 2.899910202869395 %) -3.85%; (PRVABC59, Concentration 99.01 uM, Number of replicates 2.0, Standard deviation 1.8938189888494774 %) -1.59%; (PRVABC59, Concentration 198.0 uM, Number of replicates 2.0, Standard deviation 2.221432806498782 %) 1.83%. In the case of `c1ccc(Oc2cccc(CN3CC[C@H](c4c[nH]c5ccccc45)C3)c2)nc1`, the inhibition stood at 8.48% (PRVABC59, Concentration 49.5 uM, Number of replicates 2.0, Standard deviation 1.718387030901429 %); 10.1% (PRVABC59, Concentration 99.01 uM, Number of replicates 2.0, Standard deviation 4.990297794195134 %); 7.12% (PRVABC59, Concentration 198.0 uM, Number of replicates 2.0, Standard deviation 2.6357057708957 %). For the compound `CC(C)(COC(=O)c1cccc(F)c1)NC(=O)c1cc(N)cc(Cl)c1`, the inhibition (PRVABC59, Concentration 49.5 uM, Number of replicates 2.0, Standard deviation 1.1247891306000573 %) was 3.45%; the inhibition (PRVABC59, Concentration 99.01 uM, Number of replicates 2.0, Standard deviation 1.4129417390724304 %) came to 5.8%; the inhibition (PRVABC59, Concentration 198.0 uM, Number of replicates 2.0, Standard deviation 1.2082537148179389 %) is 9%. For the compound `CN(C)CC[C@H]1CCCCN1C(=O)c1cc(Cl)ccc1NS(=O)(=O)c1ccc(Oc2ccccc2Cl)cc1`, the inhibition under setting [1] worked out at 18.4%. `COc1ccc(C)cc1NC(=O)CNC(=O)c1cc(Cl)ccc1NS(=O)(=O)c1ccc(Oc2ccccc2Cl)cc1`: the inhibition under setting [1] turned out to be 36.8%. Same read-out and setting: to `CCCCN(CCCC)CCCNC(=O)c1cc(Cl)ccc1NS(=O)(=O)c1ccc(Oc2ccccc2Cl)cc1` belongs 21.4%. Take `CCOC(=O)c1cc(Cn2cc(C3CCNCC3)c(C)n2)on1`: the inhibition (PRVABC59, Concentration 49.5 uM, Number of replicates 2.0, Standard deviation 3.597880558823145 %) is -0.431%; the inhibition (PRVABC59, Concentration 99.01 uM, Number of replicates 2.0, Standard deviation 3.9852172616025077 %) was -1.41%; the inhibition (PRVABC59, Concentration 198.0 uM, Number of replicates 2.0, Standard deviation 1.6156285466659275 %) was -2.54%.

Turning to `CCN(Cc1cccc(Cl)c1)C(=O)C1CCN(c2ccc(C=O)cc2)CC1`, the inhibition under setting [3] came out at 25.7%.

Turning to `O=Cc1ccc(N2CCC(C(=O)NCC(=O)NCC(F)(F)F)CC2)cc1`, the inhibition under setting [3] is 14.1%.

`O=C1CC[C@H](NS(=O)(=O)c2ccc(Oc3ccccc3)cc2)CN1`: the inhibition runs as follows: (PRVABC59, Concentration 49.5 uM, Number of replicates 2.0, Standard deviation 1.5561137405269672 %) -0.043%; (PRVABC59, Concentration 99.01 uM, Number of replicates 2.0, Standard deviation 3.695498054770985 %) 1.03%; (PRVABC59, Concentration 198.0 uM, Number of replicates 2.0, Standard deviation 2.148089661510246 %) 4.02%. With `CN1CCN(C[C@H]2CCCN(C(=O)C3CCN(c4ccc(C=O)cc4)CC3)C2)CC1`, the inhibition under setting [3] was 26.6%. Consider `O=C(Nc1cc(Cl)c(Br)cn1)c1cc(Cl)ccc1NS(=O)(=O)c1ccc(Oc2ccccc2Cl)cc1`, for which the inhibition under setting [1] was found to be 21.5%.

As to `COc1ccccc1N1CCN(C(=O)c2cc(Cl)ccc2NS(=O)(=O)c2ccc(Oc3ccccc3Cl)cc2)CC1`, under setting [1], the inhibition is 8.47%. For the compound `CCCCCC(=O)N[C@H](C(=O)N1CCNCC1)c1ccc(OCc2ccccc2)cc1`, the inhibition by setting is: (PRVABC59, Concentration 49.5 uM, Number of replicates 2.0, Standard deviation 1.7917326625540275 %) 4.67%; (PRVABC59, Concentration 99.01 uM, Number of replicates 2.0, Standard deviation 0.5287703153202195 %) 6.96%; (PRVABC59, Concentration 198.0 uM, Number of replicates 2.0, Standard deviation 2.046607805316139 %) 15.5%. Take `CC(C)(C)C1CCC(NC(=O)C2CCN(c3ccc(C=O)cc3)CC2)CC1` (stereo unspecified): the inhibition under setting [3] was 19.9%.

As to `CNC(=O)c1cc(Cl)ccc1NS(=O)(=O)c1ccccc1C#N`, the inhibition runs as follows: (PRVABC59, Concentration 49.5 uM, Number of replicates 2.0, Standard deviation 0.40133767512043944 %) -0.968%; (PRVABC59, Concentration 99.01 uM, Number of replicates 2.0, Standard deviation 0.5142138896626179 %) 2.22%; (PRVABC59, Concentration 198.0 uM, Number of replicates 2.0, Standard deviation 0.5330264726702436 %) 6.88%.
